Data taken from the RNAGym collection of RNA variant scans (doi:10.7554/elife.90254).
Read counts are not given, so values of variants with three or more changes are uncertain.

B1: LINE1-mini (parent)
chain: GGCAGAGCUCAACACAGCGUGGCAAAGUGGCUGUGGCUAGACUGCC

Variants of: B1
Experiment: self-cleavage, relative activity (ratio to wild type); higher = more cleavage; in vitro, sequencing; the parent is a self-cleaving ribozyme

| Variant | self-cleavage |
| --- | --- |
| A16U G30C C46A | 0.03 |
| G17A C23A G33C | 0.03 |
| A16U G22A G40C C46G | 0.05 |
| G17A G21A G27C | 0.35 |
| G17C G27U U32C | 0.04 |
| G17C A26C G30A C45G | 1.4 |
| G17A C23G A24G C46U | 0.06 |
| G17A G29U C37U | 0.08 |
| G17A C23A U28C | 0.41 |
| A16U U20G G35C | 0.03 |
| G17C C23U C45A | 1.52 |
| G17C G21A G22A C31U U32C | 0.39 |
| G17A G22U A41G | 0.07 |
| G17C C31G A39G C46G | 0.05 |
| G17C C23A G36C C42G | 0.01 |
| G17U A24U G29U C45A | 0.02 |
| G17A A26C C45U | 0.05 |
| G17C G22U U28C | 0.32 |
| G17A C23U G27C | 0.33 |
| A16U U20C A25G U28C A41C | 0.02 |
| A16U G27A G36C | 0.03 |
| G17C G21A G29U C31U G35A | 0.01 |
| G17A C18U G33U | 0.15 |
| G17C G36A C42G | 0.02 |

| Variant | self-cleavage |
| --- | --- |
| G17A C18U C42A | 0.04 |
| G17C A24U C46U | 0.44 |
| G17A U28A U34A | 0.17 |
| G17A A26C C42U | 0.19 |
| A16U G40C G44A | 0.02 |
| A16U G21C C31G | 0.01 |
| G17A C31G G35A U43A | 0 |
| G17A G19A A24G A26C | 0.34 |
| G17C G21C G29U C31U | 0.06 |
| G17C C18U G44C | 0.06 |
| G17A G35A G40C C46A | 0.11 |
| G17C U38A A39U U43C | 0.02 |
| G17C A24C G36U G44A | 0.02 |
| G17A C37A A39U | 0.07 |
| G17A C37U A41U | 0.03 |
| A16U G33A C46G | 0.11 |
| G17C C23G A26U G30U | 0.01 |
| G17C C18U G22U G36A | 0.07 |
| G17C C31A G36A | 0.05 |
| G17A G21C G22A U34A G35C | 0.03 |
| G17A G36A U43A | 0.06 |
| G17A C23G G27U C37U | 0 |
| A16U G27C U43A | 0.01 |
| G17C G22U A25C A39U | 0.77 |

| Variant | self-cleavage |
| --- | --- |
| G17A U28G C37U C42A | 0.04 |
| G17A U20A G22C | 0.07 |
| G17U A24U U28A C42U | 0.04 |
| G17C G29U G33A | 0.04 |
| G17C G22C U28G C46A | 0.06 |
| G17C G21U G35C G40A | 0.02 |
| G17C C18A G29U | 0.05 |
| G17A G30A U34A | 0.03 |
| G17C G21U U38G A41U | 0.03 |
| A16U G29U G35A C37U | 0.16 |
| G17A G29U U38C | 0.02 |
| A16U G21U C31A C42A C46G | 0.01 |
| G17A U32G G40U | 0.04 |
| G17A U20C G27A | 0.02 |
| G17A C18G G27U G40C | 0.03 |
| G17A G30U C45U | 0.28 |
| A16U U20G C23U | 0.06 |
| G17A C18U A41U | 0.02 |
| G17A U43C C45G | 0.03 |
| G17C U20C C37A | 0.01 |
| G17C G22C C45G | 0.04 |
| A16U G19C G30U U32A C37G | 0 |
| A16U U43G C45A | 0.07 |
| A16U U28A C31G | 0.01 |

| Variant | self-cleavage |
| --- | --- |
| A16U G21U A26U G30A G36C | 0.01 |
| G17C G22A G35U | 0.03 |
| G17A A24C C45A | 0.03 |
| G17A C18G G36U | 0.01 |
| G17C C18U G30U | 0.03 |
| G17A G21A C37U | 0.1 |
| G17C G22A A25U U28A | 0.71 |
| G17C C18A G22U G27A | 0.07 |
| A16U G19U G27C C42U | 0.1 |
| G17C C18G U20C A39U | 0.01 |
| A16U G19C U32A U38G G44A | 0 |
| G17A C23A G33A G36A | 0.07 |
| G17A C23A U34A | 0.02 |
| G17A G21U G27C U43A | 0.02 |
| G17A C45G C46U | 0.03 |
| G17C G22U C23A | 1.37 |
| G17C C23G A26U | 0.17 |
| A16U G19C A25G C46G | 0.11 |
| G17C G19C C42A C45A | 0.03 |
| G17A G21U G36C C42G | 0.01 |
| G17A A26C U43C | 0.07 |
| G17A A25G U38A | 0.02 |
| A16U G19C C45A | 0.09 |
| G17C G29U U32G | 0.05 |

| Variant | self-cleavage |
| --- | --- |
| G17C G30A U34C | 0.03 |
| A16U G21C A24U | 0.01 |
| G17C C18U G29C | 0.11 |
| G17C G21C C42G | 0.04 |
| A16U G30A C31U | 0.01 |
| A16U U28G G40U | 0.09 |
| G17C G19U G29U G40U | 0.01 |
| G17C G19C G21C U28C C45G | 0.04 |
| G17A A26C G27U | 0.67 |
| G17A G27A G29C U34A | 0.15 |
| G17C G19C G27C U32C C42G | 0.03 |
| G17A G27U G40U | 0.05 |
| G17A C18A G22U G27U G35U U38A | 0.06 |
| G17A G27U A39G | 0.07 |
| G17A A26G U34A | 0.02 |
| G17U A25G C42G | 0.03 |
| G17A A24C U28C | 1.47 |
| G17C C31U C37U A41U | 0.03 |
| A16U G22U G27C U38A | 0.47 |
| G17C C18G A26U G44A | 0.18 |
| G17C G35C G44C C45U C46G | 0.02 |
| G17A C23U G33A U43A | 0.02 |
| A16U G33U C37A | 0 |
| G17C G21C U43C | 0.24 |

| Variant | self-cleavage |
| --- | --- |
| G17C U34C G40A | 0.03 |
| G17A A25G C31A | 0.02 |
| G17A C18A A26C | 0.35 |
| G17A G29A C46A | 0.94 |
| G17A C18U U20A G21C C23A C46A | 0.1 |
| G17C C31A G40A | 0.04 |
| G17C G19A A39G U43A | 0.13 |
| A16U G35U G40U | 0.04 |
| G17A G27U G33U A41C | 0.04 |
| G17A A25G C42U | 0.07 |
| G17C U28C G36C G40U | 0.08 |
| A16U U20A C23U G35C U38A | 0.04 |
| G17A A25C A39U G40A C42U | 0.06 |
| G17A A25U G29C | 1.64 |
| G17A G19U A41U | 0.05 |
| G17C G21U A41C | 0.02 |
| G17A C37A G40C G44U | 0.02 |
| G17A G36A U38C G44A | 0.01 |
| A16U U20C A24U G44U C45G | 0.05 |
| G17C G19A C31G G35A C42U | 0.05 |
| G17C G33U G40C | 0.08 |
| A16U G27A G40A | 0.05 |
| G17C A24U G35U A41G | 0.03 |
| G17A U32C C37G U43C | 0.2 |

| Variant | self-cleavage |
| --- | --- |
| G17A G21U G40U | 0.01 |
| G17A A24C G29C G33A | 0.03 |
| G17A G21U G29U G35A C42A | 0.05 |
| G17A C42A G44C | 0.07 |
| A16U G33U C46A | 0.05 |
| A16U G30C A39C C45U | 0.04 |
| G17A A24U C31A | 0.02 |
| G17A G21C G30C U34G | 0.16 |
| G17A G22U G29A | 0.21 |
| G17A G22C C31G U43C | 0 |
| G17C A24U C42U | 0.06 |
| G17A C18G A25C U38C | 0.02 |
| G17C A26G G27A G30A G44A | 0.32 |
| G17C G35A C42U | 0.1 |
| G17A A25C G29C | 0.54 |
| G17A C31A A39U | 0.15 |
| G17C U20C G30U G35A C45U C46U | 0.02 |
| G17U A25G G30A | 0.16 |
| G17C C18A A24G | 0.08 |
| G17A U20G G30C C37A C45G | 0.01 |
| G17A G19C C42G | 0.03 |
| G17C C18G A39C | 0.01 |
| G17A G22A C23A U32C | 0.02 |
